Experimental data: patent US20260306644A1, “ANTIBODY RECRUITING MOLECULES FOR THE TREATMENT OF CORONAVIRUS DISEASE-19” (priority 2023, published 2026)
Where two headings read alike, the source gives them in different places. Positions of bridges follow the written chain, without caps; N, C: chain ends. Residues, ends and D or L forms follow the SMILES beside them. No end group written: not given here.

Molecular target: SARS-CoV-2 Spike glycoprotein Receptor Binding Domain (RBD) (Severe acute respiratory syndrome coronavirus 2, UniProt P0DTC2)
Test: Ligand binding to SARS-CoV-2 Spike glycoprotein Receptor Binding Domain (RBD) by BLI
Conditions: biotinylated Spike RBD

Compound | Octet SARS-CoV-2 Spike RBD Protein Binding KD (1:1 global fit) | further results
CC[C@H](C)[C@H](NC(=O)[C@H](CC(C)C)NC(=O)[C@H](CC(=O)O)NC(=O)[C@H](CO)NC(=O)[C@@H](NC(=O)[C@H](CCCNC(=N)N)NC(=O)[C@H](CCSC)NC(=O)[C@H](CO)NC(=O)[C@H](C)NC(=O)[C@H](CCC(=O)O)NC(=O)[C@H](C)NC(=O)[C@H](Cc1c[nH]cn1)NC(=O)CNC(=O)[C@H](CC(C)C)NC(=O)[C@H](CCC(=O)O)NC(=O)[C@H](CC(=O)O)NC(=O)[C@H](CC(C)C)NC(=O)[C@H](CC(C)C)NC(=O)[C@H](CCCNC(=N)N)NC(=O)[C@H](CCSC)NC(=O)[C@@H](NC(=O)[C@H](CCC(=O)O)NC(=O)[C@H](Cc1ccc(O)cc1)NC(=O)[C@@H](NC(=O)[C@H](CCCCN)NC(=O)[C@H](CCC(N)=O)NC(=O)[C@H](CC(C)C)NC(=O)[C@@H](NC(=O)[C@H](Cc1c[nH]c2ccccc12)NC(=O)[C@H](CCC(=O)O)NC(=O)[C@H](CCCCN)NC(=O)[C@H](CC(=O)O)NC(C)=O)[C@@H](C)CC)[C@@H](C)CC)[C@@H](C)CC)C(C)C)C(=O)N[C@@H](Cc1ccc(O)cc1)C(=O)N[C@@H](CCC(=O)O)C(=O)N[C@@H](Cc1ccccc1)C(=O)N[C@@H](CCSC)C(=O)N[C@@H](CCCCN)C(=O)N[C@@H](CCCCN)C(=O)NCC(=O)NCCOCCOCCOCCOCCOCCOCCOCCOCCC(=O)NCCOCCOCCOCCOCCOCCOCCOCCOCCC(=O)NCCOCCOCCOCCOCCOCCOCCOCCOCCC(=O)N[C@@H](CC(=O)O)C(=O)N[C@H]1CSSC[C@@H](C(=O)N[C@H](C(=O)O)[C@@H](C)O)NC(=O)[C@H](Cc2c[nH]c3ccccc23)NC(=O)[C@H](C(C)C)NC(=O)[C@H](CC(C)C)NC(=O)[C@H](CCC(=O)O)NC(=O)CNC(=O)[C@H](CC(C)C)NC(=O)[C@H](Cc2c[nH]cn2)NC(=O)[C@H](Cc2c[nH]c3ccccc23)NC(=O)[C@H](C)NC1=O [Compound 168] |  | Kd (1:1 global fit, read-out: Octet SARS-CoV-2 Spike RBD Protein Binding KD): 463 pM
EIMRLLDELGHAEASMRVSDLIYEFMKKGDERLLEEAERLLEEVER [Compound 212] | No Binding | 
CC[C@H](C)[C@H](NC(=O)[C@H](Cc1c[nH]c2ccccc12)NC(=O)[C@H](CCC(=O)O)NC(=O)[C@H](CCCCN)NC(=O)[C@H](CC(=O)O)NC(C)=O)C(=O)N[C@@H](CC(C)C)C(=O)N[C@@H](CCC(N)=O)C(=O)N[C@@H](CCCCN)C(=O)N[C@H](C(=O)N[C@@H](Cc1ccc(O)cc1)C(=O)N[C@@H](CCC(=O)O)C(=O)N[C@H](C(=O)N[C@@H](CCSC)C(=O)N[C@@H](CCCNC(=N)N)C(=O)N[C@@H](CC(C)C)C(=O)N[C@@H](CC(C)C)C(=O)N[C@@H](CC(=O)O)C(=O)N[C@@H](CCC(=O)O)C(=O)N[C@@H](CC(C)C)C(=O)NCC(=O)NCCOCCOCCOCCOCCOCCOCCOCCOCCC(=O)NCCOCCOCCOCCOCCOCCOCCOCCOCCC(=O)N[C@@H](CC(=O)O)C(=O)N[C@H]1CSSC[C@@H](C(=O)N[C@H](C(N)=O)[C@@H](C)O)NC(=O)[C@H](Cc2c[nH]c3ccccc23)NC(=O)[C@H](C(C)C)NC(=O)[C@H](CC(C)C)NC(=O)[C@H](CCC(=O)O)NC(=O)CNC(=O)[C@H](CC(C)C)NC(=O)[C@H](Cc2c[nH]cn2)NC(=O)[C@H](Cc2c[nH]c3ccccc23)NC(=O)[C@H](C)NC1=O)[C@@H](C)CC)[C@@H](C)CC [Compound 151] | Weak Binding | 
Ac-AEASMRVSDLIYEFMKKGDERLLEEAERLLEEVER [Compound 234] | No Binding | 
CC[C@H](C)[C@H](NC(=O)[C@H](CCCCN)NC(=O)[C@H](CCC(N)=O)NC(C)=O)C(=O)N[C@@H](Cc1ccc(O)cc1)C(=O)N[C@@H](CCC(=O)O)C(=O)N[C@H](C(=O)N[C@H]1CSSC[C@@H](C(=O)N[C@@H](CO)C(=O)N[C@@H](CC(=O)O)C(=O)N[C@@H](CC(C)C)C(=O)N[C@H](C(=O)N[C@@H](Cc2ccc(O)cc2)C(=O)N[C@@H](CCC(=O)O)C(=O)N[C@@H](Cc2ccccc2)C(=O)N[C@@H](CCSC)C(=O)N[C@@H](CCCCN)C(=O)N[C@@H](CCCCN)C(=O)NCC(=O)O)[C@@H](C)CC)NC(=O)[C@H](CCCNC(=N)N)NC(=O)[C@H](CCSC)NC(=O)[C@H](CO)NC(=O)[C@H](C)NC(=O)[C@H](CCC(=O)O)NC(=O)[C@H](C)NC(=O)[C@H](Cc2cnc[nH]2)NC(=O)CNC(=O)[C@H](CC(C)C)NC(=O)[C@H](CCC(=O)O)NC(=O)[C@H](CC(=O)O)NC(=O)[C@H](CC(C)C)NC(=O)[C@H](CC(C)C)NC(=O)[C@H](CCCNC(=N)N)NC1=O)[C@@H](C)CC [Compound 132] (Ac-QKIYEICRLLDELGHAEASMRCSDLIYEFMKKG-OH; disulfide 7-22) | Weak Binding | 
CC[C@H](C)[C@H](NC(=O)[C@H](CC(C)C)NC(=O)[C@H](CC(=O)O)NC(=O)[C@H](CO)NC(=O)[C@@H](NC(=O)[C@H](CCCNC(=N)N)NC(=O)[C@H](CCSC)NC(=O)[C@H](CO)NC(=O)[C@H](C)NC(=O)[C@H](CCC(=O)O)NC(=O)[C@H](C)NC(=O)[C@H](Cc1c[nH]cn1)NC(=O)CNC(=O)[C@H](CC(C)C)NC(=O)[C@H](CCC(=O)O)NC(=O)[C@H](CC(=O)O)NC(=O)[C@H](CC(C)C)NC(=O)[C@H](CC(C)C)NC(=O)[C@H](CCCNC(=N)N)NC(=O)[C@H](CCSC)NC(=O)[C@@H](NC(=O)[C@H](CCC(=O)O)NC(=O)[C@H](Cc1ccc(O)cc1)NC(=O)[C@@H](NC(=O)[C@H](CCCCN)NC(=O)[C@H](CCC(N)=O)NC(=O)[C@H](CC(C)C)NC(=O)[C@@H](NC(=O)[C@H](Cc1c[nH]c2ccccc12)NC(=O)[C@H](CCC(=O)O)NC(=O)[C@H](CCCCN)NC(=O)[C@H](CC(=O)O)NC(C)=O)[C@@H](C)CC)[C@@H](C)CC)[C@@H](C)CC)C(C)C)C(=O)N[C@@H](Cc1ccc(O)cc1)C(=O)N[C@@H](CCC(=O)O)C(=O)N[C@@H](Cc1ccccc1)C(=O)N[C@@H](CCSC)C(=O)N[C@@H](CCCCN)C(=O)N[C@@H](CCCCN)C(=O)NCC(=O)N[C@@H](CCC(N)=O)C(=O)N[C@@H](C)C(=O)N1CCC[C@H]1C(=O)N[C@@H](CC(=O)O)C(=O)N[C@H]1CSSC[C@@H](C(=O)N[C@H](C(=O)O)[C@@H](C)O)NC(=O)[C@H](Cc2c[nH]c3ccccc23)NC(=O)[C@H](C(C)C)NC(=O)[C@H](CC(C)C)NC(=O)[C@H](CCC(=O)O)NC(=O)CNC(=O)[C@H](CC(C)C)NC(=O)[C@H](Cc2c[nH]cn2)NC(=O)[C@H](Cc2c[nH]c3ccccc23)NC(=O)[C@H](C)NC1=O [Compound 109] |  | Kd (unit pM printed in cell, read-out: Octet SARS-CoV-2 Spike RBD Protein Binding KD (cell printed in pM)): < 1 pM
